Data as given in patent publication US20260209325A1, “SELECTIVE AND POTENT INHIBITORY ANTIBODIES OF MYOSTATIN ACTIVATION” (SCHOLAR ROCK, INC., priority 2022, published 2026).

How the values were obtained:
human pro-myostatin [1] = target: T1, human pro-myostatin (Homo sapiens, UniProt O14793); assay: Biacore 8k SPR binding affinity, human pro-myostatin
Description: (§1) The Biacore™ 8k SPR system was utilized to evaluate the binding affinity of myostatin antibodies to biotinylated human, murine, and cyno pro-myostatin. Biotin CAPture kit and sensor chips (Cytiva) were utilized in these experiments to immobilize the various antigens, followed by flowing a range of concentrations of each of the test antibodies.

murine pro-myostatin = murine pro-myostatin (Mus musculus, UniProt O08689); assay: Biacore 8k SPR binding affinity, murine pro-myostatin
Description: as §1

[2] = AC-SINS self-interaction (aggregation behavior); format: physicochemical; details: cutoff: shift of >5 nm in plasmon wavelength
Procedure: Developability profiles may be assessed by well-known parameters. […] In some embodiments, antibodies are tested for aggregation behavior by affinity capture self-interaction nanoparticle spectroscopy (AC-SINS). […] Typically, gold nanoparticles are coated with polyclonal antibodies that are specific for human monoclonal antibodies and the monoclonal antibodies are captured by the conjugates. The polyvalency of the monoclonal antibody conjugates amplifies the attractive self-interactions, i.e., aggregation between the adsorbed antibodies. This leads to reduced inter-particle separation distances and is detected by a change in color of the gold colloid solution, which may be quantified by a change in the wavelength of maximum absorbance (plasmon wavelength). Plasmon wavelength of 530 nm may be used as the reported value for unaggregated gold nanoparticles. Antibodies with a tendency to self-aggregate shift the plasmon wavelength toward the red end of the spectrum. In some embodiments, a shift of greater than 5 nm (i.e., >5 nm) in plasmon wavelength may be used as the cutoff indicative of self-interacting antibodies.
The antibodies were tested for aggregation behavior by affinity capture self-interaction nanoparticle spectroscopy (AC-SINS). Gold nanoparticles were coated with polyclonal antibodies that are specific for human monoclonal antibodies and the monoclonal antibodies are captured by the conjugates. The polyvalency of the monoclonal antibody conjugates amplifies the attractive self-interactions, i.e., aggregation between the adsorbed antibodies. This leads to reduced inter-particle separation distances and is detected by a change in color of the gold colloid solution, which was quantified by a change in the wavelength of maximum absorbance (plasmon wavelength). Plasmon wavelength of 530 nm was used as the reported value for unaggregated gold nanoparticles. Antibodies with a tendency to self-aggregate shift the plasmon wavelength toward the red end of the spectrum. A shift of greater than 5 nm (i.e., >5 nm) in plasmon wavelength was used as the cutoff indicative of self-interacting antibodies.

cyno pro-myostatin = cyno pro-myostatin (Macaca fascicularis, UniProt Q95J86); assay: Biacore 8k SPR binding affinity, cyno pro-myostatin; parameters: species or system cynomolgus monkey
Description: as §1

human pro-myostatin [3] = target: T1, human pro-myostatin; assay: SEC-MALS binding stoichiometry; details: for Observed Molecular Weight / Predicted Molecular Weight / Difference Observed vs. Predicted: mAb:pro-myostatin complex; for Difference Observed vs. Predicted: < / > = observed below / above predicted
Procedure: A combination of size exclusion chromatography and multi-angle light scattering (SEC-MALS) was used to determine the approximate mass and therefore the oligomeric state of the antibodies and their stoichiometry of binding to human promyostatin. The monoclonal antibody (mAb) or its Fab fragment was mixed with 50 μg of human pro-myostatin at a ratio of 1:1, 2:1 or 3:1 (antibody to antigen) for at least 24 hours at room temperature for immune complexes to form, filtered and injected into an analytical SEC column (Waters HPLC with a Superdex 200 10/300), flowed through a refractive index detector and then a miniDAWN® multi-angle light scattering detector to determine the mass. A full-length human-pro-myostatin with an N-terminal His6 tag (SEQ ID NO: 941) was used to express pro-myostatin in HEK cells. The signal peptide present in the construct is cleaved during biosynthesis. The resulting recombinant human pro myostatin was purified using the His6 tag (SEQ ID NO: 941) and used for the experiment.

[4] = dexamethasone-induced muscle atrophy mouse model; format: in vivo; details: dexamethasone treated mice, antibody 3 mg/kg/day; FIG. 6A, 9A
Description: To evaluate in vivo efficacy of the novel myostatin-selective inhibitors disclosed herein, the ability of the antibodies to preserve lean muscle mass was examined in a dexamethasone-induced atrophy mouse model. An excess of glucocorticoids directly stimulates myostatin production via interactions with a glucocorticoid response element in the myostatin promoter, thus inducing loss of muscle mass. As shown herein, antibodies of the disclosure prevented glucocorticoid-induced muscle atrophy.
C57BL6 male mice (n=8) at 13-14 weeks of age were given normal drinking water or water containing dexamethasone at a concentration of 2.5 mg/kg (17.5 grams dexamethasone per liter of drinking water) to induce atrophy. […] Body weight was measured daily. Body composition was measured by qNMR to determine lean mass pre-dosing, at day 7, and at day 14. After 14 days of dexamethasone exposure, the animals were terminated, and body weight and gastrocnemius weight were measured. Terminal blood for each animal was also collected.
C57BL6 male mice (n=8) at 13-14 weeks of age were given normal drinking water or water containing dexamethasone at a concentration of 2.5 mg/kg to induce atrophy. Mice were dosed at day 1 and day 7 with vehicle (PBS), IgG control (“hIgG”) or different doses of the test antibodies, as shown in Table 13. Muscle mass at days −1, 6 and 13 was measured using qNMR. At the end of the study (day 14), serum from each animal was collected and changes in body weight, body composition (qNMR), left and right gastrocnemius weight, and left and right quadriceps weight were measured. Statistical analysis was performed by ANOVA (Dunnett's multiple comparison test).
In a third experiment, antibody doses ranging from 0.3 mg/kg to 10 mg/kg were compared for their effectiveness in attenuating dexamethasone-induced atrophy. C57BL6 male mice (n=8) at 13-14 weeks of age were given normal drinking water or water containing dexamethasone at a concentration of 2.5 mg/kg to induce atrophy. Mice were dosed at day 1 and day 7 with vehicle (PBS), human IgG control (“hIgG”) or different doses of the test antibodies, as shown in Table 14 below. qNMR was used to measure muscle mass at days −1, 6 and 13. At day 14 the study ended, serum was collected and changes in body composition (qNMR), left and right gastrocnemius weight, and left and right quadriceps weight were determined. Circulating myostatin was measured in the serum of a terminal bleed taken at day 14. Statistical analysis was performed by ANOVA (Dunnett's multiple comparison test).
In a fourth experiment, antibodies Ab109 and Ab133 were compared to control human IgG and Ab2 in the same protocol as described above.

Ka (human pro-myostatin [1]) [M⁻¹ s⁻¹]	Kd (1/s) (human pro-myostatin [1]) [s⁻¹]	Ka (murine pro-myostatin) [M⁻¹ s⁻¹]	Kd (1/s) (murine pro-myostatin) [s⁻¹]	Ka (cyno pro-myostatin) [M⁻¹ s⁻¹]	Kd (1/s) (cyno pro-myostatin) [s⁻¹]	Kd (murine pro-myostatin) [nM]	binding stoichiometry mAb:pro-myostatin (human pro-myostatin [3]; full-length mAb)	Observed Molecular Weight (human pro-myostatin [3]; Peak 1) [kDa]	Predicted Molecular Weight (human pro-myostatin [3]; Peak 1) [kDa]	Difference Observed vs. Predicted (human pro-myostatin [3]; Peak 1) [kDa]	Observed Molecular Weight (human pro-myostatin [3]; Peak 2) [kDa]	Predicted Molecular Weight (human pro-myostatin [3]; Peak 2) [kDa]	Difference Observed vs. Predicted (human pro-myostatin [3]; Peak 2) [kDa]	Molecule	aggregation behavior by AC-SINS [2]	SEC-MALS Result (kDa) (human pro-myostatin [3]; input ratio mAb:pro-myostatin 1:1 (peak 1))	SEC-MALS Result (kDa) (human pro-myostatin [3]; input ratio mAb:pro-myostatin 1:1 (peak 2))	maintenance of body weight (percent change from baseline) [4]
4.37e+06	0.000339	4.34e+06	0.00036	4.84e+06	0.000317	–	–	–	–	–	–	–	–	Ab101: anti-pro/latent myostatin antibody; CDR sequences in Table 2d (antibody) heavy: EVQLVESGGGLVQPGGSLRLSCAASGSAFSSYGMSWVRQAPGKGLELVASINSNGGSTYYPDSVKGRFTISRDNAKNSLYLQMNSLRAEDTAVYYCARDLLVRFLEWSHYYGMDVWGQGTTVTVSSASTKGPSVFPLAPCSRSTSESTAALGCLVKDYFPEPVTVSWNSGALTSGVHTFPAVLQSSGLYSLSSVVTVPSSSLGTKTYTCNVDHKPSNTKVDKRV[human IgG4 Fc with S228P (EU numbers) left out] light: DIVMTQSPLSLPVTPGEPASISCRSSQSLLHSSGHNFLHWYLQKPGQSPQLLIYEVSNRVSGVPDRFSGSGSGTDFTLKISRVEAEDVGVYYCMQQTQYPPTFGGGTKVEIKRTVAAPSVFIFPPSDEQLKSGTASVVCLLNNFYPREAKVQWKVDNALQSGNSQESVTEQDSKDSTYSLSSTLTLSKADYEKHKVYACEVTHQGLSSPVTKSFNRGEC	did not display aggregation behavior	–	–	–
5.78e+06	0.00151	5.83e+06	0.00221	6.09e+06	0.00154	–	–	–	–	–	–	–	–	Ab103: anti-pro/latent myostatin antibody; CDR sequences in Table 2d (antibody) heavy: EVQLVESGGGLVQPGGSLRLSCAASGYTFSSYGMSWVRQAPGKGLELVASITGDAGRTYYPDSVKGRFTISRDNAKNSLYLQMNSLRAEDTAVYYCARDTLVRFLEWSHYYGMDVWGQGTTVTVSSASTKGPSVFPLAPCSRSTSESTAALGCLVKDYFPEPVTVSWNSGALTSGVHTFPAVLQSSGLYSLSSVVTVPSSSLGTKTYTCNVDHKPSNTKVDKRV[human IgG4 Fc with S228P (EU numbers) left out] light: DIVMTQSPLSLPVTPGEPASISCRSSQSLLHSSGHNFLHWYLQKPGQSPQLLIYEVSNRVSGVPDRFSGSGSGTDFTLKISRVEAEDVGVYYCMQQTQYPPTFGGGTKVEIKRTVAAPSVFIFPPSDEQLKSGTASVVCLLNNFYPREAKVQWKVDNALQSGNSQESVTEQDSKDSTYSLSSTLTLSKADYEKHKVYACEVTHQGLSSPVTKSFNRGEC	did not display aggregation behavior	–	–	–
5.34e+06	0.000319	8.04e+06	0.000455	5.85e+06	0.000316	–	–	–	–	–	–	–	–	Ab107: anti-pro/latent myostatin antibody; CDR sequences in Table 2d (antibody) heavy: EVQLVESGGGLVQPGGSLRLSCAASGSAFSSYGMSWVRQAPGKGLELVASINSNGGSTYYPDSVKGRFTISRDNAKNSLYLQMNSLRAEDTAVYYCARDQLVRFLEWSHYYGMDVWGQGTTVTVSSASTKGPSVFPLAPCSRSTSESTAALGCLVKDYFPEPVTVSWNSGALTSGVHTFPAVLQSSGLYSLSSVVTVPSSSLGTKTYTCNVDHKPSNTKVDKRV[human IgG4 Fc with S228P (EU numbers) left out] light: DIVMTQSPLSLPVTPGEPASISCRSSQSLLHSSGHNFLHWYLQKPGQSPQLLIYAGSNRPSGVPDRFSGSGSGTDFTLKISRVEAEDVGVYYCAHATQLPHTFGGGTKVEIKRTVAAPSVFIFPPSDEQLKSGTASVVCLLNNFYPREAKVQWKVDNALQSGNSQESVTEQDSKDSTYSLSSTLTLSKADYEKHKVYACEVTHQGLSSPVTKSFNRGEC	did not display aggregation behavior	–	–	–
4.89e+06	0.000247	5.99e+06	0.000276	5.26e+06	0.000233	0.46	2:2 complex and a 1:2 complex	500.0	485.58	>14.4	298.9	329.58	<30.7	Ab105: anti-pro/latent myostatin antibody; CDR sequences in Table 2d (antibody) heavy: EVQLVESGGGLVQPGGSLRLSCAASGSAFSSYGMSWVRQAPGKGLELVASIGGTGATYYPDSVKGRFTISRDNAKNSLYLQMNSLRAEDTAVYYCARDLLVRFLEWGHYYGMDVWGQGTTVTVSSASTKGPSVFPLAPCSRSTSESTAALGCLVKDYFPEPVTVSWNSGALTSGVHTFPAVLQSSGLYSLSSVVTVPSSSLGTKTYTCNVDHKPSNTKVDKRV[human IgG4 Fc with S228P (EU numbers) left out] light: DIVMTQSPLSLPVTPGEPASISCRSSQSLLHSSGYNFLHWYLQKPGQSPQLLIYAASSRAPGIPDRFSGSGSGTDFTLKISRVEAEDVGVYYCMHGGQGPTFGGGTKVEIKRTVAAPSVFIFPPSDEQLKSGTASVVCLLNNFYPREAKVQWKVDNALQSGNSQESVTEQDSKDSTYSLSSTLTLSKADYEKHKVYACEVTHQGLSSPVTKSFNRGEC	did not display aggregation behavior	500	298.9	to a greater extent than Ab2
